Assay results: PubChem BioAssay (NCI)
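48-hour exposure; five concentrations; linearly interpolated endpoints. TGI denotes the concentration required for complete inhibition of growth.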 A number of entries come with more than one value. This list holds those alone. An entry can have further records. The tests behind the records often covered other concentration ranges, which the source does not state; some values may only mark the edge of a range. Numbered stars: 1 amine (or outer) side, 2 acyl side, 3 side chain; on linkers, the order of the positions; unused ones are H or OH. Bridge positions count the residues as written; N and C are the ends. Square brackets hold non-standard residues; d marks the D form. Peptide text beside a SMILES is read from it. * marks the point of attachment. ξ: configuration not given here. Phe(3,5-F2) = N[C@@H](Cc1cc(F)cc(F)c1)C(=O)O; ξThr(3S) = C[C@H](O[*:3])C(N[*:1])C(=O)[*:2]; Pro(4R-Me) = C[C@H]1CN[C@H](C(=O)O)C1; Pip = O=C(O)[C@@H]1CCCCN1; X1 = Cc1ccc(N*)c(F)c1; CO = O=C([*:1])[*:2]

Test system: MDA-MB-468 breast
Assay: inhibition of tumour cell growth, NCI panel, 48 h

Cc1ccc(NC(=O)N[C@@H](Cc2cc(F)cc(F)c2)C(=O)NC2C(=O)N3CCC[C@H]3C(=O)N3CCCC[C@H]3C(=O)N[C@@H](C)C(=O)N3C[C@H](C)C[C@H]3C(=O)O[C@H]2C)c(F)c1 (stereo partly drawn) ({X1-CO}-[Phe(3,5-F2)][ξThr(3S)]P[Pip]A[Pro(4R-Me)]; ester 2-C)
TGI: 10.6 µM and 845 nM
